# Assay results as given in ChEMBL document CHEMBL4888484, “Replenishing the malaria drug discovery pipeline: Screening and hit evaluation of the MMV Hit Generation Library 1 (HGL1) against asexual blood stage Plasmodium falciparum ,using a nano luciferase reporter read-out” (2022).
# The whole screen tested about 150,000 compounds, of which about 540 (0.36%) showed an effect of 50% or more. This is one part of the list.
# Tested on: Plasmodium falciparum
# Assay: Primary screen in NF54 nanoGlo assay, in single point, at 2uM, 72h; a lower Z score goes with more inhibition
# Assay type: functional, Erythrocyte
# Details: timepoint 72 hour
SMILES,% Inhibition,Z score
COc1cccc(-c2cn(CC(=O)Nc3cccc(C)c3C)nc2N2CCOCC2)c1,-5%,0.6
Cc1nc(-c2ccccn2)n(Cc2ccc(C(N)=O)cc2)n1,-6%,0.49
CCCc1cnc(C)nc1N1CCC(NC2CCOCC2)CC1,1%,-0.19
CC(=O)N1C[C@H](O)C[C@@H]1c1nc(-c2ccc(F)cc2)no1,-9%,1.89
COc1ccc(NC(=O)N[C@H](CO)C(C)(C)C)cc1C,-10%,1.51
CN1CCN(C(=O)N2CCCn3nc(-c4nc5ccccc5[nH]4)cc3C2)CC1,0%,0
COC(=O)[C@@H]1C[C@@H](N(C)C)CN1S(=O)(=O)c1ccccc1OC,-7%,1.36
O=C(Cc1cccc(F)c1)Nc1ccc2c(c1)NCCC2,1%,-0.09
CCn1ccc(C(=O)N2CC[C@H](n3c(=O)[nH]c4cncnc43)C2)n1,-19%,3.06
Cc1ncsc1CCC(=O)N1C[C@H](C(=O)O)[C@@H](c2ccc(F)cc2)C1,2%,-0.31
COc1cc(C2C(C(=O)N3CCCC3)CCC(=O)N2c2ccc3c(c2)OCO3)cc(OC)c1OC (configuration not stated),-10%,1.55
FC(F)(F)Cc1noc(CN2CCC[C@H]2COc2ccccc2)n1,-2%,0.29
COc1ccc(CNc2cc(C(=O)NC3CCCC3)cc(S(=O)(=O)Nc3ccccc3)c2)cc1OC,-10%,1.31
C1=C(CN2CCC[C@H](N3CCCC3)CC2)COc2ccccc21,13%,-1.66
CCCN(Cc1ccccn1)C(=O)NC[C@H]1CCN(Cc2ccccc2C)C1,7%,-1.39
C[C@H]1CNc2cc(S(N)(=O)=O)ccc21,11%,-1.28
CCCc1cc(C(=O)N(C)[C@@H](C)c2cncs2)[nH]n1,-14%,2.05
CCc1ccc(-c2cc(C(=O)N[C@@H](C)c3n[nH]c(N)n3)[nH]n2)cc1,-12%,1.63
CCCN(CC1CC1)[C@H]1CCC(=O)N(Cc2ccc(C(=O)OC)cc2)CC1,-13%,1.89
O=C(N[C@H]1C[C@H]2CC[C@@H]1C2)c1cc(COc2cccc3cccnc23)on1,1%,-0.17
O=C(CCc1nnc(C(=O)Nc2cccc(Cl)c2)s1)NCCN1CCCC1,-8%,1.59

SMILES,% Inhibition,Z score
COC(=O)C1CCN(C(=O)c2cc(Cl)c3c(c2)OCCCO3)CC1,-9%,1.4
CN1CCN(c2nc3c(c(Oc4ccc(F)c(F)c4)n2)CN(S(=O)(=O)c2ccccc2)CC3)CC1,8%,-1.15
COc1cc(NC(C)=O)cc(OC)c1OC,-2%,0.39
Cc1nc(N)sc1-c1ccn(C[C@H]2COc3ccccc3O2)n1,-18%,2.03
Cc1noc(C2CCN(C(=O)[C@@](C)(O)CCc3ccccc3)CC2)n1,-1%,0.09
CCOC(=O)[C@H](Cc1ccc(OC(=O)CNC(=O)OCc2ccccc2)cc1)NC(=O)OCc1ccccc1,26%,-3.49
CC(C)(C)OC(=O)[C@]1(C)CCCN1CCN1C(=O)CNC1=O,-2%,0.22
O=C(COc1ccc2c(c1)OCO2)N[C@H]1CCOC2(CCOCC2)C1,-10%,1.89
O=C(C1CCC1)N1CCOc2ccc(CN3CCc4ccccc4C3)cc2C1,-16%,1.74
CCS(=O)(=O)C1CN(C(=O)[C@H](C)n2ccc3ccccc3c2=O)C1,-4%,0.45
Cc1ccc(N2CCCN(Cc3ccc(OC(F)(F)F)cc3)C2=O)c(NC(=O)Nc2ccccc2)c1,-5%,0.76
CN(CC(=O)N1CCOCC1)c1ncncc1-c1nc(-c2ccsc2)no1,-7%,1.3
CNC(=O)c1noc(Cn2ncc(N(C)Cc3ccccc3)cc2=O)n1,0%,-0.02
O=C(C[C@@H]1CCN2C[C@@H]1/C=C/COc1ccc(N3CCNCC3)cc1CNCC2=O)NC1CCCCC1,28%,-3.19
CC(CC(O)c1ccccc1)NC(=O)CCC(F)(F)F (configuration not stated),-4%,0.53
CCNC(=O)N[C@@H](C)c1cnc(N2CCCCCCC2)nc1C,0%,0.02
CN(C)S(=O)(=O)N[C@@H](c1ccccc1)c1ccc2c(c1)CCCO2,-2%,0.3
CN1CCN(C(=O)C2CN(C(=O)c3cccc(Cl)c3)CC2c2cccc(C(F)(F)F)c2)CC1 (configuration not stated),-12%,1.37
Cc1cnc(C(=O)Nc2ccccc2OC[C@H]2CCCO2)cn1,-7%,0.65
CC1CN(C(=O)CCC(C)(C)C(=O)N2CC(C)OC(C)(C)C2)CC(C)(C)O1 (configuration not stated),-11%,2.13
CNc1cc(C)nc(N2CCC[C@@]3(CCC(=O)N(Cc4cccnc4)C3)C2)n1,0%,0.06

SMILES,% Inhibition,Z score
COC(=O)c1cc(CNc2ccncc2F)n(C)c1C,-3%,0.33
Cc1nc(N2CCN(CCCO)CC2)c2cc[nH]c2n1,14%,-2.18
CS(=O)(=O)c1cccc2c1N(C(=O)C(F)F)CCC2,-3%,0.48
CCS(=O)(=O)CC(=O)Nc1ccc(-c2cccc(F)c2)c(F)c1,-3%,0.53
CCN(C[C@H]1CCCCO1)C(=O)COc1cccnc1,-10%,1.29
CCO[C@H]1COC[C@@H]1NC(=O)N1Cc2cccnc2N2CCC[C@H]2C1,-15%,1.56
COc1ccc(CCCN2CCOC(C3CCCO3)C2)cc1F (configuration not stated),-9%,1.21
CS(=O)(=O)NCc1cccc(Cl)c1,10%,-1.92
CC(C)Oc1ccccc1CN1C[C@@H]2C(=O)N(CCCN3CCCC3=O)C(=O)[C@@H]2C1,5%,-0.59
COCCN(CC(=O)N(C)C)c1nccc(C)n1,-5%,0.67
CCc1cccc2c(C(CC(=O)NC(C)c3ccccc3)c3ccccc3C(F)(F)F)c[nH]c12 (configuration not stated),-2%,0.33
Cn1cnnc1COCC(=O)N1CC(C)(C)[C@@H]2CCC[C@@H]21,21%,-2.72
C#CCN(Cc1ccco1)C(=O)c1c[nH]c(=O)c(Cl)c1,-2%,0.22
CCc1ccc(-c2cc3c(=O)n(Cc4nc(-c5cccc(Cl)c5)oc4C)ccn3n2)cc1,-2%,0.28
CC(=O)N1CCC(NC(=O)c2ccncc2)CC1,-1%,0.15
Cc1cc2c(cc1S(=O)(=O)N1CCCC(C(=O)NCc3ccc(OC(C)C)cc3)C1)OC(C)C(=O)N2 (configuration not stated),-13%,1.48
C[C@H]1COC2(CCN(CC(=O)N(C)Cc3ccc(F)cc3)CC2)O1,0%,0.07
COc1ccc(C2CCCN2C(=O)CN2CCOCC2C)cc1OC (configuration not stated),2%,-0.24
COc1cccc(OC)c1C(=O)N[C@@H]1c2ccccc2C2(CCNCC2)[C@H]1OC,-10%,2.07
O=C(c1cccc(S(=O)(=O)N2CCCCC2)c1)N1CCc2sccc2C1,3%,-0.39
C[C@@H](CN1CCOCC1)NC(=O)c1cccc2c1C(=O)OC2(C)C,2%,-0.36

SMILES,% Inhibition,Z score
CCc1noc(C(C)N2CC(C)C(N3CCCN(C(C)=O)CC3)C2)n1 (configuration not stated),-8%,0.87
COc1ccc(CCNC(=O)CCn2c(-c3ccccc3)cc(C(C)=O)c2C)cc1OC,14%,-1.63
Cc1nc(-c2ccc(C(=O)NCCN3CCCCC3)cc2)n(C)n1,-18%,1.85
Cc1ccc(-n2cc(-c3ccccc3)nc2NC(=O)CN(Cc2ccccc2)C(=O)c2cccs2)cc1F,0%,-0.09
CNC(=O)N1CCN(S(=O)(=O)c2ccc3c(c2)CCCC3)CC1,-13%,1.21
c1ccc(-n2cc(-c3nc(-c4cnccn4)cs3)cn2)cc1,-7%,1.27
Cc1c(NCc2ncc([C@H](C)O)s2)cccc1N(C)C,-3%,0.3
C[C@@H](NC(=O)C[C@@H]1[C@H](O)CC[C@@H]2[C@](C)(CO)[C@H](O)CC[C@]21C)c1ccccc1,12%,-1.8
c1cnc2nc(N3CCC[C@H](c4nc5c(s4)CCC5)C3)ccc2n1,-7%,1.37
COc1ccc(-c2nnc(Cc3nc(-c4cccc(F)c4)no3)o2)cc1OC,-3%,0.42
Cc1ccc(-c2cn[nH]c2[C@H]2CCCN(C(=O)c3cnc(O)cn3)C2)cc1,-17%,2.25
CC(C)Nc1nc(NC(C)C)nc(N(C)n2cnnc2)n1,-4%,0.56
O=C1C[C@H](c2cccc(O)c2)c2c(n(C3CCCCC3)[nH]c2=O)N1,-5%,0.58
CCc1nc(C(C)NCC2CCCN(S(C)(=O)=O)C2)cs1 (configuration not stated),2%,-0.34
COc1cccc([C@@H]2CC(=O)Nc3nc(N4CCC(C)CC4)nc(O)c32)c1,27%,-3.93
COc1cc(-c2cccnc2)nc(N)n1,-11%,1.56
CC[C@H]1CN2C=NC(N3CCN(C(=O)Nc4cc(F)cc(F)c4)CC3)=CC2=N1,68%,-4.25
CC(C)OC(=O)[C@H](C)N(C)c1nccc(C(F)(F)F)n1,1%,-0.27
